This note sets out measurements from patent US10294303B2, “Method of treating or ameliorating metabolic disorders using binding proteins for gastric inhibitory peptide receptor (GIPR) in combination with GLP-1 agonists” (AMGEN INC., priority 2015, dated 2019).

One test concerns C57BL/6 DIO mice. The experiment in a line: Mouse pharmacodynamic assay to test GIPR antibody 5G12.006. Format: in vivo. On the procedure: FIG. 16 provides an overview of the mouse pharmacodynamic assay to test anti-GIPR Antibodies. Male C57BL/6 DIO mice at 16 weeks old were purchased from Jackson laboratory. After arrival, mice were single housed and continued on high fat diet (60 kcal % fat, Research diet) for 2 weeks before pharmacological study. Four days before the start of treatments, 4 h fasting glucose and insulin were measured. Body weight was recorded twice a week during the week before the treatments start and the day of start. […] All treatments were administrated once a week intraperitoneally for four weeks. Body weight was measured twice a week.

In test [1] the test system is C57BL/6 Diet-Induced Obese mice. The experiment in a line: Chronic treatment of diet induced obese mice with GIPR antibody 5G12.006. The format is in vivo, mouse. As to conditions: DIO mice dosed each week for 4 weeks. On the procedure:
The study design is outlined in FIG. 18. Male C57BL/6 Diet-Induced Obese mice (Jackson Lab), 18 weeks old at start (on high fat diet for 12 weeks) were randomized based on body weight. Mice were dosed each week for 4 weeks. Body weights were recorded twice a week; not fasted glucose measured on day 18 and fasted insulin measured on day 29. Terminal blood collected for measurement of total cholesterol, and triglycerides. Intraperitoneal glucose tolerance test (IPGTT) was performed on day 25 with 4 hour fast with 1 g/kg of glucose. After 4 weeks, study was terminated following a 4 hour fast. Serum samples were collected and livers were weighed. Blood was collected from tail vein or cardiac puncture at termination. Serum samples were obtained by centrifugation of blood collection tubes at 10000 rpm. Serum insulin levels were determined by using mouse high range insulin ELISA (ALPCO Diagnostics). The triglyceride levels were measured using an Infinity triglyceride assay kit (Thermo Scientific). Total cholesterol was measured using an Infinity total cholesterol kit (Thermo Scientific). At termination, liver and epididymal fat were isolated and weighed using a balance.

B1: 5G12.006: anti-GIPR antibody, 5G12 family; binds to both murine and human GIPR (antibody)
heavy: QVQLVESGGGVVQPGRSLRLSCTASGFTFSSYGIHWVRQAPGKGLEWVAVIWYDGSNKFHADSVKGRFTISRDNSKNTLYLQMNSLRAEDSAMYFCARGKVAGMPEAFEIWGQGTKVTVSSASTKGPSVFPLAPSSKSTSGGTAALGCLVKDYFPEPVTVSWNSGALTSGVHTFPAVLQSSGLYSLSSVVTVPSSSLGTQTYICNVNHKPSNTKVDKKV[human IgG1 Fc with R292C N297G V302C (EU numbers) not written out]
light: DIQLTQSPSSLSASVGDRVTITCRASQTISRFLNWYQQKPGKAPELLIYVASSLQSGVPSRFSGSGSGTDFTLTISSLQPEDFATYYCQQSYSTLISFGQGTKLEITRTVAAPSVFIFPPSDEQLKSGTASVVCLLNNFYPREAKVQWKVDNALQSGNSQESVTEQDSKDSTYSLSSTLTLSKADYEKHKVYACEVTHQGLSSPVTKSFNRGEC
Turning to B1, the GIP glucose levels result with C57BL/6 DIO mice (FIG. 17A) is “Antagonized”. Further, the “GIP induced insulin secretion” value in the test with C57BL/6 DIO mice (FIG. 17B) is “Antagonized”. Moreover, the body weight gain result in test [1] (FIG. 19) was “reduced body weight gain”. In addition, in test [1] (FIG. 22), the liver weights result is recorded as “lower liver weights”. In test [1] (day 25, 4 hour fast, 1 g/kg glucose, FIG. 20), the “glucose tolerance (IPGTT)” value was “improved glucose tolerance”. The insulin levels result in test [1] (fasted, day 29, FIG. 21B) is given as “lower”. Further, in test [1] (not fasted, day 18, FIG. 21A), the glucose levels result is reported as “lower glucose”. Further, the total cholesterol levels result in test [1] (terminal blood, FIG. 23A) is on record as “Lower”. Besides, the triglyceride levels result in test [1] (terminal blood, FIG. 23B) is given as “Lower”.
